# The supplement of paper PMC3334620
# Over roughly 33,000 sequences, “E-score (-0.5 to 0.5)” has its median near -0.016; the highest 2% begin near 0.31. This is one part of the list.
# Target: Cst6 (UniProt P40535)
# Experiment: PBM E-score (8-mer binding enrichment) (E-score (-0.5 to 0.5)); higher = stronger / more preferred TF binding; most listed sequences are background and not binding sites
# Conditions: protein concentration: 200 nM; construct: GST-DNA-binding domain
# Procedure, shortened: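 For each ungapped eight-base word taken together with its reverse complement, the Universal PBM Analysis Suite assigned an E-score. Binding data came from GST-tagged yeast transcription factors, applied at about 100-200 nM, on universal all-10-mer Agilent arrays made double-stranded by primer extension. Fluorescent anti-GST marked bound protein, and scans were normalised with masliner.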
row,Sequence,PBM E-score
1,CGTGAGAG,-0.269
2,CCAAAGTC,-0.149
3,ATGTGTCC,0.00709
4,GGCTGGAA,-0.204
5,CGTTTTGC,0.174
6,GCTGGGGA,-0.334
7,CTCGCACA,0.00612
8,CTGACAGC,-0.148
9,GCATTACA,0.187
10,CAAAAACC,0.0583
11,CTGGAGGC,-0.21
12,AGTTTATC,0.19
13,CTTTGCCA,-0.0186
14,ATTGCGGC,-0.0327
15,ATTATCTG,0.0751
16,ACCGCAAA,0.0877
17,ATTCGGGA,-0.183
18,CCATCGTA,0.105
19,AATTCTTA,0.0873
20,CCCGGGAA,-0.255
21,GACAGACA,0.00042
22,AACATGTC,0.0546
23,CGACAACG,0.119
24,AACTGCGG,0.0561
25,ATTAACGA,0.179

row,Sequence,PBM E-score
1,AATAGAGG,-0.141
2,CCGCCGAG,-0.164
3,ATCTTACG,0.213
4,AAGTTTGG,0.22
5,AAATCGCT,-0.214
6,CAGTAGCC,-0.254
7,AAGATCGC,-0.0457
8,CCGGGAAG,-0.184
9,AGAGTATG,-0.189
10,CGATACAG,-0.0771
11,CCAATTTC,0.107
12,CCGTCCGA,-0.181
13,ACACGTCC,-0.182
14,CATTGACG,0.358
15,CCGTAGCA,0.0411
16,GAACGAAA,-0.0138
17,AGGTTAAC,0.0395
18,CCAGTGGG,-0.237
19,GGTACTTA,-0.0213
20,ATAGAGTC,-0.0801
21,ACCTTTGC,-0.095
22,AGGGCGGG,-0.0957
23,AGACCAAT,-0.0669
24,TACTTGAA,0.113
25,GCAGTACA,-0.164

row,Sequence,PBM E-score
1,CAACGAAG,-0.107
2,AGCGTACT,-0.157
3,AAGGCCAG,-0.18
4,CTACCAAG,-0.128
5,ATATGTTG,0.138
6,AGGTGCAA,0.0369
7,GTCGAGAA,0.089
8,GGAAATCA,0.0954
9,CCCCAAAG,-0.168
10,ATGGACAG,-0.166
11,ATATCTCC,-0.0493
12,GTGAAGAA,0.0969
13,ACTTATAG,0.0302
14,AAGCGAGT,0.0165
15,ATTAAAAG,0.173
16,ATAAAGAC,0.0641
17,ATCCGCTC,-0.218
18,AAACGCGA,0.0976
19,GTCGCGTA,0.19
20,ATCGCCAT,0.0296
21,CATCTTGG,-0.0575
22,CATCGGCA,0.0521
23,AGTGATAT,0.0988
24,CGAAGTAC,-0.106
25,GAAGGGGC,-0.202

row,Sequence,PBM E-score
1,TGAGAACA,0.145
2,GGATTACA,-0.0128
3,ACACACAC,0.0991
4,CGAGAATA,0.213
5,AAGGACCA,-0.2
6,ATATCGCA,-0.0175
7,AGCGGGAT,0.0274
8,CAGTATCC,-0.0801
9,CGGATAAC,0.0481
10,GAACCGAC,-0.0852
11,GGGCGCAC,-0.214
12,CTCCCTAC,-0.0597
13,CGTGGTCA,-0.0643
14,ATAAAATG,0.225
15,ACTCTGGC,-0.255
16,AATATTAC,0.241
17,AGAGTCAT,-0.0245
18,GCGCGTTA,0.0245
19,AGCGTCAA,0.269
20,ATTGACGC,0.265
21,ACTTCGAA,0.164
22,ACCCCCAC,-0.417
23,TAAGGGGA,-0.132
24,ATAACAAT,0.129
25,ATCATCGG,-0.00365

row,Sequence,PBM E-score
1,GGAAGAGA,-0.106
2,CCGCCAGC,-0.295
3,GAACGTCA,0.442
4,CGGTATTA,0.0433
5,ACAGATGG,-0.112
6,AGGATGAC,0.208
7,ATGGTCGA,-0.154
8,ACACGTGT,0.197
9,GGAGACTA,-0.167
10,ATTTCATG,0.00873
11,GATATGGC,-0.193
12,CCGGGAGG,-0.318
13,CGAAATGA,0.146
14,CAGAAGGC,-0.0565
15,CTGTTGGA,-0.104
16,AGACAGAA,0.0723
17,ATTGAGTA,0.294
18,GTCTGCAC,-0.266
19,AGCTTAAG,-0.12
20,AAAGAGCC,0.0135
21,ATGGCCTG,-0.277
22,CTTTGCTC,-0.0358
23,TAGCTGAA,-0.0877
24,TACACTAA,-0.00434
25,ACATCACG,0.303

row,Sequence,PBM E-score
1,ACCGCCCC,-0.205
2,ATGAGATG,0.0721
3,CCCCGCTC,-0.373
4,ACGGTCCA,-0.232
5,CGATCAAC,-0.105
6,GCTATATA,0.167
7,GGGTTTGA,0.0409
8,ATTTCGGA,0.15
9,GTGTGTCA,0.248
10,GGACACGA,-0.176
11,CATCAGAA,0.253
12,GAAACCCC,-0.173
13,AGGGCTGC,-0.252
14,CAGTCCTA,-0.19
15,CAGCGATG,-0.0664
16,GAGTTGAC,0.0187
17,GAGCCAAC,-0.041
18,ACCGGACT,-0.246
19,AACTAGGC,-0.0131
20,CGCTTCCG,-0.171
21,AGTTCCCG,-0.205
22,AGCAAGAA,0.0528
23,CGATAATC,-0.16
24,ACGTCACC,0.496
25,GTGGGACA,-0.205

row,Sequence,PBM E-score
1,CAAGTCCC,-0.288
2,GACCGTAC,-0.161
3,CACTGAAA,0.185
4,ATGTCCAC,0.0293
5,ATCCTATA,0.124
6,AGTCGCTA,-0.26
7,CATAGCCA,0.025
8,CTAGGCCC,-0.384
9,AGCGGGTG,-0.165
10,GATTACAC,0.171
11,GCAAGGGA,-0.235
12,ACCTTCAC,-0.0918
13,ATATTATC,0.262
14,CCACGGAC,-0.344
15,CGAGCCAA,0.00297
16,AGCGAGCA,-0.169
17,GTCGCCTA,-0.0534
18,AGGTATTC,0.0784
19,AATACGCA,0.124
20,ACGCGGGC,0.0213
21,ACACCAGG,-0.21
22,AAATCAAC,-0.0292
23,CTCGCTCC,-0.0523
24,GAAGGCGA,-0.0691
25,ATCATACC,0.259

row,Sequence,PBM E-score
1,GGCTACCC,-0.232
2,GGATCCGA,-0.234
3,GACATGTC,0.146
4,ATTATCTA,0.193
5,ACCCGGAC,-0.225
6,AAAAAACA,0.278
7,GTTATGCA,-0.141
8,AAGAAACG,0.151
9,TCAGTCGA,0.0379
10,CCTGAGAA,0.0927
11,CAGAGCGG,-0.117
12,CCTGCCTA,-0.116
13,AGTTGTTG,-0.0201
14,ATATACTA,0.157
15,CCCGTGTA,-0.194
16,ACCTCATC,0.218
17,CGGGCTTA,-0.0261
18,CGGACCCG,-0.233
19,GCTGCACC,-0.343
20,CGCATTAC,0.138
21,CTACCATC,-0.218
22,AGAGCTTA,-0.0282
23,ATCTCATA,0.0632
24,CCCGGAAC,-0.302
25,AACTGTAA,0.23

row,Sequence,PBM E-score
1,GAGGCCGC,-0.169
2,CGTTCGGC,-0.0488
3,CGTAACTA,0.303
4,AAAAGAGC,-0.0608
5,AGTATATC,0.0089
6,ATGTAGGA,-0.113
7,ATCGACAT,0.133
8,CGGTTTTC,0.0548
9,AATACTAT,0.064
10,CGCGGGGA,-0.153
11,ACCCGTAA,0.00565
12,CCCTCGAC,-0.166
13,GTACGTAC,0.0996
14,GTCATTCA,0.289
15,GCAAAACA,0.124
16,ATGACAAG,0.134
17,GAGCCTTA,-0.0126
18,GACTTGGC,-0.3
19,CGTCGGCC,-0.116
20,ACTTCTGC,0.0227
21,CATGACGC,0.455
22,ATTATGGG,-0.12
23,CAAGACCA,-0.261
24,ATAGAATA,0.214
25,AAGGAGGC,-0.155

row,Sequence,PBM E-score
1,GTCTGCTA,0.0394
2,CCCCCTCG,-0.4
3,AGAGATAC,0.0588
4,CAGGAGAG,-0.263
5,AGGGTGTC,-0.205
6,AGAGCAAA,-0.00698
7,CCAAGAGG,-0.192
8,AAGATATA,0.13
9,CTGCAACA,-0.0348
10,CCTGTGTA,-0.0359
11,ATCTATCA,0.128
12,ACACACGC,-0.0309
13,AACCGTGA,0.203
14,ACCTCGCA,-0.0965
15,AACAGCAA,0.0149
16,CGCCAAGC,-0.125
17,AGTACGCA,-0.237
18,AAGAGACG,-0.0946
19,ATGTACCG,0.0238
20,AAGGAGTG,-0.137
21,ACCAATAT,0.0913
22,CAGACTAA,0.0205
23,CGGCTCTA,0.127
24,CTCAGAAA,0.226
25,CTTACCCC,-0.204

row,Sequence,PBM E-score
1,ACTTGTTG,-0.208
2,CGCCATAG,-0.025
3,ATAGCACC,-0.04
4,AGGTCTTA,-0.145
5,ATGTAAAG,0.163
6,CAGCATAG,0.0423
7,CAGAGTCG,-0.209
8,ACGCAATG,0.24
9,CGGCCATA,-0.103
10,CACGGTGA,0.139
11,CTCGGCGC,0.192
12,GAGACCTC,-0.102
13,CAGGTCCA,-0.0856
14,CTTGCGCC,-0.0634
15,CACCACTG,-0.0455
16,ATCGACGA,0.00463
17,CCGACTAC,-0.163
18,ACGAAGCG,-0.0135
19,CAAAGTGG,-0.196
20,AGTACGTA,0.267
21,GGTAGACC,-0.267
22,GTGACCGA,-0.00972
23,GACCGACC,-0.17
24,AAGAGGCC,-0.151
25,AGCGCCCT,0.113

row,Sequence,PBM E-score
1,GTTCGTGA,-0.143
2,CAACAGCA,0.00053
3,CAAACGAG,0.0101
4,ATATTGAA,0.168
5,AATCATAG,0.189
6,GACCGGAC,-0.317
7,CTCTAATC,-0.0876
8,CACGAGTC,-0.217
9,ACCTTCGC,-0.0947
10,CAGCGGAG,-0.197
11,ATTCTTTG,0.132
12,ATTAAGGA,-0.0459
13,GCCATTCA,0.0125
14,AGCTGCGA,-0.198
15,GCTGATGA,0.278
16,CTAGTGAA,-0.0768
17,CCAGGGAC,-0.253
18,ATGTCTTC,-0.153
19,ACCCAAAC,0.0543
20,ATCCCCAC,-0.179
21,AAAGGTGG,0.0223
22,ACGGCCTA,-0.112
23,AGATGGCA,0.0659
24,ACCTGAGC,-0.0036
25,ACGATTAA,0.12

row,Sequence,PBM E-score
1,ACTCAGAT,0.116
2,TCCGCGCA,0.123
3,AACTATCA,0.203
4,CTGCGCGC,0.1
5,GTATTACA,0.209
6,CGGTGCCA,-0.204
7,AAAGCCCG,-0.283
8,AACATTCG,-0.116
9,AATTACCG,0.196
10,GTTCAGAA,0.0446
11,AACAAGAA,0.237
12,AGTGGATG,0.0228
13,ACAGACCC,-0.168
14,TACCTGAA,0.0646
15,AACGGGTC,-0.251
16,AGCAAGAT,0.0303
17,GTTTTGTA,0.29
18,GACGCGAC,0.085
19,CTCCCTTC,-0.304
20,CTCTTGAC,-0.0368
21,ACGAGAGG,-0.0665
22,TACTTCTA,0.0813
23,AATACAGA,0.127
24,CGTACATA,0.212
25,ACCCGACT,-0.16

row,Sequence,PBM E-score
1,GCGAATCC,-0.229
2,AAGCCGAG,-0.0986
3,AGCGGTCA,-0.0932
4,TCTATTCA,0.201
5,GGCTGACA,0.0337
6,CATTCGGC,-0.0466
7,CCGCCACC,-0.17
8,ACTCTGCG,-0.0141
9,ATAGCGCG,-0.0704
10,ACACTCTG,-0.0657
11,TAGCCCAA,0.0416
12,CAACAAAC,0.078
13,GTGCACAC,0.0143
14,CTAATCCA,-0.0445
15,GAACTATC,-0.114
16,CAGAACCG,-0.0704
17,ATTGCCAG,-0.0529
18,AATACCAC,0.0407
19,ACTGTCCT,-0.0455
